Here are results for six cell lines from the supplement of paper PMC4967469.

Assay in all cases: Viability of human cancer cell lines after 72 h of drug (GDSC screen)
Compound in one assay: Cc1cnc(-c2cnc(NCCNc3ccc(C#N)cn3)nc2-c2ccc(Cl)cc2Cl)[nH]1 [CHIR-99021]
The procedure:
(§1)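 Human cancer cell lines in 384-well plates, medium with 10% serum, drug for 72 h over a 256-fold dose range (nine 2-fold or five 4-fold steps up to the top dose). Adherent lines were fixed and stained with the nucleic acid dye Syto60, suspension lines read with resazurin; signal relative to control wells, capped at 0 and 100%. One two-parameter sigmoid per drug and line, fitted in a mixed model over all curves with the slope shared within a line.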

Compound in another assay: Nc1ccn([C@@H]2O[C@H](CO)[C@@H](O)[C@@H]2O)c(=O)n1 [Cytarabine]
The note with it: top dose 2 µM. The procedure:
as §1

Compound in another assay: C/C=C(/C)C(=O)O[C@H]1C(C)=C2[C@H]([C@@H]1OC(=O)CCCCCCC)[C@@](C)(OC(C)=O)C[C@H](OC(=O)CCC)[C@@]1(O)[C@H]2OC(=O)[C@@]1(C)O [Thapsigargin]
The note with it: top dose 0.512 µM; top dose inferred. The procedure: as §1

Compound in the next assay: C=CC(=O)Nc1cc(-n2c(=O)ccc3cnc4ccc(-c5cn[nH]c5)cc4c32)ccc1C [QL-X-138]
The note with it: top dose 10.24 µM; top dose inferred. The procedure:
as §1

Compound in the next assay: COc1cc(N2CCC(O)CC2)ccc1Nc1cc(Nc2ccccc2S(=O)(=O)C(C)C)c2cc[nH]c2n1 [MPS-1-IN-1]
The note with it: top dose 20 µM; top dose inferred. On the procedure: as §1

Compound in a further assay: Cc1ccc(F)c(NC(=O)Nc2ccc(-c3cccc4[nH]nc(N)c34)cc2)c1 [ABT-869]
The note with it: top dose 1.024 µM; top dose inferred. The procedure:
as §1

Compound in a further assay: CCn1c(-c2nonc2N)nc2cnc(Oc3cccc(NC(=O)c4ccc(OCCN5CCOCC5)cc4)c3)cc21 [GSK269962A]
Particulars: top dose 5 µM; screen: GDSC drug entry 1192; top dose inferred. The procedure:
as §1

Compound in a further assay: COc1cc2ncnc(-n3nc(-c4ccccn4)nc3N)c2cc1OC [CP466722]
Particulars: top dose 16 µM; top dose inferred. The procedure: as §1

Compound in a further assay: COc1nc(C)cnc1NS(=O)(=O)c1cccnc1-c1ccc(-c2nnco2)cc1 [Zibotentan]
The note with it: top dose 20 µM; top dose inferred. On the procedure:
as §1

Compound in a further assay: C[C@]1(c2nc3c(C(N)=O)cccc3[nH]2)CCCN1 [ABT-888]
Particulars: top dose 5 µM; top dose inferred. The procedure:
as §1

Compound in another assay: COc1cc(O)c2c(c1)/C=C/C[C@H](O)[C@H](O)C(=O)/C=C\C[C@H](C)OC2=O [(5Z)-7-Oxozeaenol]
The note with it: top dose 10 µM; top dose inferred. The procedure: as §1

Where [1] appears, read: top dose 2.56 µM, screen: GDSC drug entry 154.
Setting [2] is: top dose 10 µM, screen: GDSC drug entry 1241, top dose inferred.

Lines with a small IC50 respond at low doses; where the fit passes the top or lowest dose, that dose stands as a limit. For AUC the same curve is integrated over the 256-fold range of doses and scaled to a fraction; values near 1 show little effect. For some of these results: Any top dose called inferred was calculated from the reported fits. For some of these results: Drugs with an entry number were screened twice under separate entries, and the two screens often disagree. A value given as a limit tells only on which side of the number the result lay.

The IC50 is the point on the concentration scale where inhibition reaches its midpoint. A2058 (melanoma, adherent): the AUC amounted to 0.98 with CHIR-99021 (setting [1]); 0.57 with Cytarabine; 0.161 in the assay with Thapsigargin; 0.745 with QL-X-138; 0.954 with MPS-1-IN-1; 0.99 with ABT-869. The AUC with GSK269962A was 0.879; in the assay with CP466722, 0.898; in the assay with Zibotentan, 0.99; with ABT-888 it was 0.964. The IC50 with CHIR-99021 (setting [1]) was over 2560 nM; with Cytarabine it was 190 nM; with Thapsigargin, 3.46 nM; with QL-X-138, 2940 nM; with MPS-1-IN-1, over 20000 nM; with ABT-869, over 1020 nM. Besides, the IC50 with GSK269962A is 4170 nM; with CP466722, over 16000 nM; with Zibotentan, over 20000 nM; with ABT-888, over 5000 nM.

In the case of AN3-CA (endometrium, adherent), the AUC stood at 0.963 with CHIR-99021 (setting [1]); 0.96 in the assay with CHIR-99021 (setting [2]); 0.845 in the assay with Cytarabine; 0.169 with Thapsigargin; 0.468 with (5Z)-7-Oxozeaenol; 0.653 with QL-X-138. Further, the AUC with MPS-1-IN-1 turned out to be 0.974; in the assay with ABT-869, 0.839; with GSK269962A, 0.682; with CP466722, 0.86; in the assay with Zibotentan it was 0.983; with ABT-888, 0.969. Moreover, the IC50 is over 2560 nM with CHIR-99021 (setting [1]); over 10000 nM in the assay with CHIR-99021 (setting [2]); 1650 nM with Cytarabine; 2.78 nM with Thapsigargin; 506 nM with (5Z)-7-Oxozeaenol; 1780 nM with QL-X-138. Moreover, the IC50 was over 20000 nM in the assay with MPS-1-IN-1; 795 nM with ABT-869; 1060 nM in the assay with GSK269962A; 15600 nM with CP466722; over 20000 nM in the assay with Zibotentan; over 5000 nM with ABT-888.

For the cell line BT-549 (breast, adherent), the AUC with CHIR-99021 (setting [2]) is 0.902; in the assay with Cytarabine, 0.811; with (5Z)-7-Oxozeaenol, 0.623; with GSK269962A, 0.539; in the assay with ABT-888 it was 0.978. For the same cell line, the IC50 was over 10000 nM with CHIR-99021 (setting [2]); 1630 nM in the assay with Cytarabine; 1560 nM in the assay with (5Z)-7-Oxozeaenol; 417 nM with GSK269962A; over 5000 nM with ABT-888.

In the case of “DMS-53 (small cell lung carcinoma, adherent)”, the AUC with CHIR-99021 (setting [1]) was 0.988; with CHIR-99021 (setting [2]), 0.982; with Cytarabine, 0.915; with Thapsigargin it was 0.664; with (5Z)-7-Oxozeaenol, 0.795; with QL-X-138, 0.988. Besides, the AUC was determined as 0.988 in the assay with MPS-1-IN-1; 0.982 with ABT-869; 0.984 in the assay with GSK269962A; 0.975 with CP466722; 0.987 with Zibotentan; 0.988 with ABT-888. Moreover, the concentration for half-maximal inhibition (IC50) with CHIR-99021 (setting [1]) is over 2560 nM; with CHIR-99021 (setting [2]) it was over 10000 nM; with Cytarabine, over 2000 nM; in the assay with Thapsigargin, 94.6 nM; with (5Z)-7-Oxozeaenol, 5040 nM; with QL-X-138 it was over 10200 nM. The IC50 with MPS-1-IN-1 is over 20000 nM; in the assay with ABT-869, over 1020 nM; with GSK269962A, over 5000 nM; in the assay with CP466722, over 16000 nM; in the assay with Zibotentan, over 20000 nM; with ABT-888 it was over 5000 nM.

For the cell line Daoy (medulloblastoma, adherent), the AUC in the assay with CHIR-99021 (setting [1]) stood at 0.987; with CHIR-99021 (setting [2]) it was 0.878; with Cytarabine, 0.757; with Thapsigargin it was 0.23; with (5Z)-7-Oxozeaenol it was 0.536; in the assay with QL-X-138 it was 0.409. Besides, the AUC worked out at 0.95 in the assay with MPS-1-IN-1; 0.983 in the assay with ABT-869; 0.914 with GSK269962A; 0.797 with CP466722; 0.987 with Zibotentan; 0.936 with ABT-888. For the same cell line, the IC50 was over 2560 nM in the assay with CHIR-99021 (setting [1]); 8480 nM with CHIR-99021 (setting [2]); 629 nM with Cytarabine; 5.8 nM with Thapsigargin; 777 nM with (5Z)-7-Oxozeaenol; 370 nM with QL-X-138. Also, the IC50 in the assay with MPS-1-IN-1 is over 20000 nM; in the assay with ABT-869, over 1020 nM; with GSK269962A it was over 5000 nM; with CP466722 it was 6780 nM; with Zibotentan, over 20000 nM; with ABT-888 it was over 5000 nM.

Turning to EFM-19 (breast, adherent), the AUC amounted to 0.891 with CHIR-99021 (setting [1]); 0.974 in the assay with CHIR-99021 (setting [2]); 0.8 with Cytarabine; 0.794 in the assay with (5Z)-7-Oxozeaenol; 0.753 with QL-X-138; 0.942 with MPS-1-IN-1. Further, the AUC with ABT-869 stood at 0.955; in the assay with GSK269962A, 0.903; with CP466722 it was 0.741; in the assay with Zibotentan, 0.953; with ABT-888, 0.977. The IC50 is over 2560 nM with CHIR-99021 (setting [1]); over 10000 nM in the assay with CHIR-99021 (setting [2]); 1640 nM in the assay with Cytarabine; 7610 nM with (5Z)-7-Oxozeaenol; 5170 nM with QL-X-138; over 20000 nM with MPS-1-IN-1. Moreover, the IC50 in the assay with ABT-869 is over 1020 nM; with GSK269962A, over 5000 nM; in the assay with CP466722, 7150 nM; in the assay with Zibotentan it was over 20000 nM; in the assay with ABT-888 it was over 5000 nM.
